{
  "source": "paper PMC12136788",
  "binders": {"B1": {"name": "chrX:117909842:117909960:-|CDS|ENSG00000003096|unk|FALSE|unique (ssRNA)", "RNA": "GGGAGUUCUACAGUCCGACGAUCAGCACAGGGGAGUUCUUGAAACUCCCUUUUGAGCGUCUUGCCUUCGUGCUUUCCAGUAAUAGCCUUAAGCACUGUACUGAACUUGAGCUCUUUAAGGCUACCUGUCGUUGGCUUCGCCUGCAACAGAGGAUUGAGCAUCA"}, "B2": {"name": "chr3:31657911:31664018:-|three_prime_utr|ENSG00000144645|control|control|control (ssRNA)", "RNA": "GGGAGUUCUACAGUCCGACGAUCGGGUUUUUCUUGCUGAGCCCCCAAGACUGGAUAAAUACCAGGCAGGGGAAGGGAUGGACUAGGGCAGCUCGGUUCUGACUCCAGCUUUGGACAAGGCUUCAGGACAGGUUUUCUGCCACACAACAGAGGAUUGAGCAUCA"}, "B3": {"name": "chr22:20819776:20819877:-|CDS|ENSG00000241973|unk|FALSE|unique (ssRNA)", "RNA": "GGGAGUUCUACAGUCCGACGAUCUGUAACGUUUUCACUUGAUCUUCUAGAAUACCUUUGCAAGUAUGCUAUCCCAUGCCUGAUAGGAAUCUCGCGAGCAUUUGGGCGUUACAGCAACAUGGAAGAGUCUCUCCUCUCAAAGCUCAACAGAGGAUUGAGCAUCA"}, "B4": {"name": "chr14:100278170:100278208:+|3pUTR|ENSG00000100811|msi1_unk|FALSE|overlapping (ssRNA)", "RNA": "GGGAGUUCUACAGUCCGACGAUCGCUAUCUUAAUUUUGGUUGUAUUCUUUGAUGUUAACACAUUUUGUAUAAUUGUAUCGUAUAGCUGUAUUGAAUCAUGUAGUAUCAAAUAUUAGAUGUGAUUUAAUAGUGUUAAUCAAUUUCAACAGAGGAUUGAGCAUCA"}, "B5": {"name": "chr20:13714314:13714426:-|3pUTR|ENSG00000089048|unk|total|mutant (ssRNA)", "RNA": "GGGAGUUCUACAGUCCGACGAUCUUUUUCCCGCCAUAAAGGAUGGAAGUCAAGAACUUUUUGUUGUUCCGUCAUGUUAAGUACCGUUUAUGAAAUUAACUUGUAAAUAAAAGUGUAAAAUAUUUUCAUUAUUUUGUACCGCACCAACAGAGGAUUGAGCAUCA"}, "B6": {"name": "chr6:89938216:89938327:-|CDS|ENSG00000112182|unk|FALSE|unique (ssRNA)", "RNA": "GGGAGUUCUACAGUCCGACGAUCUCUUCCAAGGAACGAUUUCCAGAUGAUGAUUAAAAUGCACAAGCUAACCUCAGAACAGUUAGAGUUUAUUCAUGAUGUCCGACGGCGCAGCAAGAACCGCAUCGCGGCCCAGCGCUGCCGCAACAGAGGAUUGAGCAUCA"}, "B7": {"name": "chr3:50341111:50341409:-|three_prime_utr|ENSG00000004838|control|control|control (ssRNA)", "RNA": "GGGAGUUCUACAGUCCGACGAUCCGAUCUCCCUCCUCCUCACCCCAAGUGAAGGCUCGAGACUUCCUGCCCCACCCAGUGGGUAGGCCAAGUGUGUUGCUUCAGCAAACCGGACCAGGAGGGCCAGGGCCGGAUGUGGGGACCCAACAGAGGAUUGAGCAUCA"}, "B8": {"name": "chr7:77627539:77627665:+|CDS|ENSG00000127947|unk|FALSE|bound_elsewhere (ssRNA)", "RNA": "GGGAGUUCUACAGUCCGACGAUCAAUAUUUCAACAGCAAGUGCCACAGUUUCUGCUGCCACUAGUACUGAAAGCAUUUCUACUAGGAAAGUAUUGCCAAUGUCCAUUGCUAGACAUAAUAUAGCAGGAACAACACAUUCAGGUCAACAGAGGAUUGAGCAUCA"}, "B9": {"name": "chr11:75562225:75562326:+|5pUTR|ENSG00000149257|msi1|total|mutant (ssRNA)", "RNA": "GGGAGUUCUACAGUCCGACGAUCGCAGGAGGGGGUGGGGACUGCCAUAUACCGAUCCCGGGAGCAGGGGAGCGGGCUAAGAGCCGAAUCGUGUCGCGGCUCGAGAGCGAGAGUCACGUCCCGGCGCCCGCCCAGCCCGACCCACAACAGAGGAUUGAGCAUCA"}, "B10": {"name": "chr2:74529670:74529771:-|5pUTR|ENSG00000115307|unk|FALSE|unique (ssRNA)", "RNA": "GGGAGUUCUACAGUCCGACGAUCUCUCCGCCGGACGCGAGUUGUGAGACGGCCCAAGGGGCCGCGGGGUAUGCUGGGACCGCUAGCCCUUCCGGCGCGCCUCAGGACUUCGGGUCCCCUCACCCCGGGCGGAUGCCCAAAGACCAACAGAGGAUUGAGCAUCA"}, "B11": {"name": "chr17:44319658:44319728:-|3pUTR|ENSG00000013306|msi1_unk|FALSE|overlapping (ssRNA)", "RNA": "GGGAGUUCUACAGUCCGACGAUCUCCCUGUGUUUGCUGUAGCUGGGCAUGUCUCCAGGAACCAAGAAGCCCUCAGCCUGGUGUAGUCUCCCUGACCCUUGUUAAUUCCUUAAGUCUAAAGAUGAUGAACUUCUGCCUGGUGCCCAACAGAGGAUUGAGCAUCA"}, "B12": {"name": "chr7:73478007:73478118:-|CDS|ENSG00000009954|unk|FALSE|unique (ssRNA)", "RNA": "GGGAGUUCUACAGUCCGACGAUCAAAGGCACGCAGAAGAUGACACGAGCCCCACGGAAUUCUGGGGGUACACCUAGGACCUCUAGUAAACCUCAUAAACAUCUGCCUCCUGCAGCCCUACACCUCAUUGCAUACUACAAAGAACAACAGAGGAUUGAGCAUCA"}, "B13": {"name": "ENSG00000124766:be:win_1201|CDS|ENSG00000124766|bound_else_gene|NA|bound_elsewhere_windowed (ssRNA)", "RNA": "GGGAGUUCUACAGUCCGACGAUCUUCGAAGACGACCUGCUCGACCUGAACCCCAGCUCAAACUUUGAGAGCAUGUCCCUGGGCAGCUUCAGUUCGUCGUCGGCGCUCGACCGGGACCUGGAUUUUAACUUCGAGCCCGGCUCCCAACAGAGGAUUGAGCAUCA"}, "B14": {"name": "chr6:43013266:43013367:-|CDS|ENSG00000124733|msi1|FALSE|bound_elsewhere (ssRNA)", "RNA": "GGGAGUUCUACAGUCCGACGAUCAUCCCUGUCCUACCGCCUCCCUGUUCUUGCAGCCCCUGCCCGGAUGGCAACAGUAGUUCUAGGAGGAGACACCAUGGGCCCUGAGCGUAUCUUCCCCAAUCAGACUGAGGAACUGGGACACAACAGAGGAUUGAGCAUCA"}, "B15": {"name": "chr5:138349049:138349150:+|3pUTR|ENSG00000120709|msi1|total|mutant (ssRNA)", "RNA": "GGGAGUUCUACAGUCCGACGAUCGAGAAGGUCUACAGUUAUCAUUAUUUUAAUUCCAUUACUUUCAGUCUGGAAAACUAAGCCCGUCAGAACUGUCAUCUUGCUUCCCAAUCUAAGAACCUGUGGCCCUGGAACACUUUUCAACAACAGAGGAUUGAGCAUCA"}, "B16": {"name": "chr10:89774496:89774597:+|3pUTR|ENSG00000138182|msi1|total|mutant (ssRNA)", "RNA": "GGGAGUUCUACAGUCCGACGAUCAAGAUCUCAAGUCUUUAAUCCGAAUGUCUCACUUAUUUUGUAAACAUUUUGUGGGUACACCGUACAUGUAUAUAUUUACGGGGUAUGUGAGAUGUUUUGACACAGGCAUGCAAUGUGAAACAACAGAGGAUUGAGCAUCA"}, "B17": {"name": "chr11:124038068:124039001:-|CDS|ENSG00000182634|control|control|control (ssRNA)", "RNA": "GGGAGUUCUACAGUCCGACGAUCCAACGAGAUGGUCAUCUUUGUGAAUAUUGGGCUAGUGGCCUCGGGCUGCUUUGUCCUGAUAGUGCUGUCCUAUGUGUCCAUCGUCUGUUCCAUCCUGCGGAUCCGCACCUCAGAGGGGAGCAACAGAGGAUUGAGCAUCA"}, "B18": {"name": "chr20:35286537:35287972:-|CDS|ENSG00000125998|control|control|control (ssRNA)", "RNA": "GGGAGUUCUACAGUCCGACGAUCAAUCUCGGCAAGCUAGGGGCAUACCCAUGGUCCCAGUCCUCCCCUGCCCUCAACCAUAAUAGUACCAGCCCCUUAACCUUGGCAGUGGGGUCACCUCUGCUUCCUCGCUCCCGGCCCCUCCAACAGAGGAUUGAGCAUCA"}, "B19": {"name": "chr5:173316221:173316322:-|3pUTR|ENSG00000113739|msi1|total|mutant (ssRNA)", "RNA": "GGGAGUUCUACAGUCCGACGAUCAGUACUUUCAGUUUGGCGAGCCGUGAGGUCUCUGUCGAAACUACUCAACUCUGCCGUCCCCGCACAAAAGCAGCCACCGACAACACACAAACGAGAGGGCUUGGCUCCCUUCCAGGAAGACAACAGAGGAUUGAGCAUCA"}, "B20": {"name": "ENSG00000198589:be:win_2701|CDS|ENSG00000198589|bound_else_gene|NA|bound_elsewhere_windowed (ssRNA)", "RNA": "GGGAGUUCUACAGUCCGACGAUCGCAGUCAAAUAUGAGUGGGGUGGCUGGCGUGUAUGGGUAGACACUUUAUCAAUCACUCAUUCAAAGGUCACUUUUGAAAUACACAAAGAAAACCUUGCCAAUAUAUUUAGGGAACAGCAACAACAGAGGAUUGAGCAUCA"}, "B21": {"name": "chr5:151662744:151662768:-|3pUTR|ENSG00000113140|msi1_unk|FALSE|overlapping (ssRNA)", "RNA": "GGGAGUUCUACAGUCCGACGAUCGGGGCUCUAGGGACUGCCAGGCUGUUUCAGCCAGGAAGGCCAAAAUCAAGAGUGAGAUGUAGAAAGUUGUAAAAUAGAAAAAGUGGAGUUGGUGAAUCGGUUGUUCUUUCCUCACAUUUGCAACAGAGGAUUGAGCAUCA"}, "B22": {"name": "chr18:49591392:49591493:+|3pUTR|ENSG00000101670|msi1|FALSE|unique (ssRNA)", "RNA": "GGGAGUUCUACAGUCCGACGAUCCCUUCUUAGUUAUUAUGUGCCACCUCCCCUAUGAGUGACGUGUUUGAUCACUAGCAGAAUAGCAAGCAGAGUAUCAUUCAUGCUGGGGCCAGAAUGAUGGCCGGUUGCCAGAUAUAACUGCAACAGAGGAUUGAGCAUCA"}},
  "note": "This is one part of the list.",
  "data": [
    {"target": "MSI1 full-length (mouse, UniProt Q61474 1-362)", "sequence (Q61474 whole entry)": "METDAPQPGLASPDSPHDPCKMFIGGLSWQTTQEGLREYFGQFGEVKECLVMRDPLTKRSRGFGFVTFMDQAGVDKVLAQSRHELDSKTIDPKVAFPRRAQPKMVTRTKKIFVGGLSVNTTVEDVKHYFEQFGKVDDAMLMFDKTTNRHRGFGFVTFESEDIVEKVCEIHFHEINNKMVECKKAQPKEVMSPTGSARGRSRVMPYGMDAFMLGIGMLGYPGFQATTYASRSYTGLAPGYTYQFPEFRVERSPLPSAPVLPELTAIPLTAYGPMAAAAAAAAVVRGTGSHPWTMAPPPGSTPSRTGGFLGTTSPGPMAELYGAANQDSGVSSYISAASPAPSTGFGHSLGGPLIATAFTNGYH", "test": "nsRBNS (natural sequence RNA bind-n-seq); RBNS binding buffer (assumed for nsRBNS): 25 mM Tris pH 7.5, 150 mM KCl, 3 mM MgCl2, 0.01% Triton X-100, 500 ug/ml BSA, 20 U/ml SUPERase-In, 4 C; UNK is unkempt and MSI1 is Musashi-1; names of the RNAs are library labels; protein concentration not given here; high values mean tight binding", "units": {"binding signal": "enrichment R"}, "values": [
      {"binder": "B1", "binding signal": 0.308},
      {"binder": "B2", "binding signal": 0.515},
      {"binder": "B3", "binding signal": 0.264},
      {"binder": "B4", "binding signal": 16},
      {"binder": "B5", "binding signal": 0.796},
      {"binder": "B6", "binding signal": 0.413},
      {"binder": "B7", "binding signal": 0.426},
      {"binder": "B8", "binding signal": 0.303},
      {"binder": "B9", "binding signal": 0.505},
      {"binder": "B10", "binding signal": 0.342},
      {"binder": "B11", "binding signal": 1.4},
      {"binder": "B12", "binding signal": 0.46},
      {"binder": "B13", "binding signal": 0.417},
      {"binder": "B14", "binding signal": 0.76},
      {"binder": "B15", "binding signal": 0.418},
      {"binder": "B16", "binding signal": 0.231},
      {"binder": "B17", "binding signal": 0.398},
      {"binder": "B18", "binding signal": 0.687},
      {"binder": "B19", "binding signal": 0.523},
      {"binder": "B20", "binding signal": 1.26},
      {"binder": "B21", "binding signal": 4.98},
      {"binder": "B22", "binding signal": 12.1}
    ]}
  ]
}
